{"source": "the supplement of paper PMC8728848", "experiment_in_all_cases": "glycan array binding signal (z-score within array); higher = stronger binding", "settings_in_all_cases": "glycan notation: IUPAC condensed, linker removed", "key": {"[1]": {"biological_target": "Kdn(a2-3)Gal(b1-4)Glc", "summary_of_the_method": "(§1)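 The binding signal is a Z-score computed within each array. Data were drawn from 3228 arrays in the Consortium for Functional Glycomics database, restricted to those with a known protein sequence. Scores were averaged over arrays of the same protein sequence at different concentrations or buffers, and over linkers, and negative values can be taken as non-binding.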"}, "[2]": {"biological_target": "Kdn(a2-3)Gal(b1-4)GlcNAc", "summary_of_the_method": "as §1"}, "[3]": {"biological_target": "Kdn(a2-3)Gal(b1-4)[Fuc(a1-3)]GlcNAc", "summary_of_the_method": "as §1"}, "[4]": {"biological_target": "Kdn(a2-6)Gal(b1-4)GlcNAc", "summary_of_the_method": "as §1"}, "[5]": {"biological_target": "Man(a1-2)Man(a1-2)Man(a1-3)Man", "summary_of_the_method": "as §1"}, "[6]": {"biological_target": "Man(a1-2)Man(a1-2)Man(a1-6)[Man(a1-3)]Man", "summary_of_the_method": "as §1"}, "[7]": {"biological_target": "Man(a1-2)Man(a1-3)Man", "summary_of_the_method": "as §1"}, "[8]": {"biological_target": "Man(a1-2)Man(a1-3)[Man(a1-2)Man(a1-6)]Man", "summary_of_the_method": "as §1"}, "[9]": {"biological_target": "Man(a1-2)Man(a1-3)[Man(a1-2)Man(a1-6)]Man(a1-6)[Man(a1-2)Man(a1-2)Man(a1-3)]Man", "summary_of_the_method": "as §1"}, "[10]": {"biological_target": "Man(a1-2)Man(a1-3)[Man(a1-2)Man(a1-6)]Man(a1-6)[Man(a1-2)Man(a1-2)Man(a1-3)]Man(b1-4)GlcNAc(b1-4)GlcNAc", "summary_of_the_method": "as §1"}, "[11]": {"biological_target": "Man(a1-2)Man(a1-3)[Man(a1-6)]Man(a1-6)[Man(a1-2)Man(a1-3)]Man(b1-4)GlcNAc(b1-4)GlcNAc", "summary_of_the_method": "as §1"}, "[12]": {"biological_target": "Man(a1-2)Man(a1-6)[Man(a1-3)]Man(a1-6)[Man(a1-2)Man(a1-2)Man(a1-3)]Man", "summary_of_the_method": "as §1"}, "[13]": {"biological_target": "Man(a1-2)Man(a1-6)[Man(a1-3)]Man(a1-6)[Man(a1-2)Man(a1-2)Man(a1-3)]Man(b1-4)GlcNAc(b1-4)GlcNAc", "summary_of_the_method": "as §1"}, "[14]": {"biological_target": "Man(a1-3)[Man(a1-6)]Man", "summary_of_the_method": "as §1"}, "[15]": {"biological_target": "Man(a1-3)[Man(a1-6)]Man(a1-6)[Man(a1-2)Man(a1-3)]Man(b1-4)GlcNAc(b1-4)GlcNAc", "summary_of_the_method": "as §1"}, "[16]": {"biological_target": "Man(a1-3)[Man(a1-6)]Man(a1-6)[Man(a1-3)]Man", "summary_of_the_method": "as §1"}, "[17]": {"biological_target": "Man(a1-3)[Man(a1-6)]Man(a1-6)[Man(a1-3)]Man(b1-4)GlcNAc(b1-4)GlcNAc", "summary_of_the_method": "as §1"}, "[18]": {"biological_target": "Man(a1-3)[Man(a1-6)]Man(b1-4)GlcNAc(b1-4)GlcNAc", "summary_of_the_method": "as §1"}, "[19]": {"biological_target": "Man(a1-6)Man", "summary_of_the_method": "as §1"}, "[20]": {"biological_target": "Man(b1-4)GlcNAc", "summary_of_the_method": "as §1"}, "[21]": {"biological_target": "Neu5Ac(a2-3)Gal", "summary_of_the_method": "as §1"}, "[22]": {"biological_target": "Neu5Ac(a2-3)Gal(b1-3)GalNAc", "summary_of_the_method": "as §1"}, "[23]": {"biological_target": "Neu5Ac(a2-3)Gal(b1-3)GalNAc(b1-3)Gal(a1-4)Gal(b1-4)Glc", "summary_of_the_method": "as §1"}, "[24]": {"biological_target": "Neu5Ac(a2-3)Gal(b1-3)GalNAc(b1-4)[Neu5Ac(a2-3)]Gal(b1-4)Glc", "summary_of_the_method": "as §1"}, "[25]": {"biological_target": "Neu5Ac(a2-3)Gal(b1-3)GalNAc(b1-4)[Neu5Ac(a2-8)Neu5Ac(a2-3)]Gal(b1-4)Glc", "summary_of_the_method": "as §1"}, "[26]": {"biological_target": "Neu5Ac(a2-3)Gal(b1-3)GalNAc6S", "summary_of_the_method": "as §1"}, "[27]": {"biological_target": "Neu5Ac(a2-3)Gal(b1-3)GlcNAc", "summary_of_the_method": "as §1"}, "[28]": {"biological_target": "Neu5Ac(a2-3)Gal(b1-3)GlcNAc(b1-2)Man(a1-3)[Neu5Ac(a2-3)Gal(b1-3)GlcNAc(b1-2)Man(a1-6)]Man(b1-4)GlcNAc(b1-4)GlcNAc", "summary_of_the_method": "as §1"}, "[29]": {"biological_target": "Neu5Ac(a2-3)Gal(b1-3)GlcNAc(b1-3)Gal(b1-3)GlcNAc", "summary_of_the_method": "as §1"}, "[30]": {"biological_target": "Neu5Ac(a2-3)Gal(b1-3)GlcNAc(b1-3)Gal(b1-4)GlcNAc", "summary_of_the_method": "as §1"}, "[31]": {"biological_target": "Neu5Ac(a2-3)Gal(b1-3)GlcNAc(b1-3)GalNAc", "summary_of_the_method": "as §1"}, "[32]": {"biological_target": "Neu5Ac(a2-3)Gal(b1-3)GlcNAc6S", "summary_of_the_method": "as §1"}, "[33]": {"biological_target": "Neu5Ac(a2-3)Gal(b1-3)[Fuc(a1-4)]GlcNAc", "summary_of_the_method": "as §1"}, "[34]": {"biological_target": "Neu5Ac(a2-3)Gal(b1-3)[Fuc(a1-4)]GlcNAc(b1-3)Gal(b1-3)[Fuc(a1-4)]GlcNAc", "summary_of_the_method": "as §1"}, "[35]": {"biological_target": "Neu5Ac(a2-3)Gal(b1-3)[Fuc(a1-4)]GlcNAc(b1-3)Gal(b1-4)[Fuc(a1-3)]GlcNAc", "summary_of_the_method": "as §1"}, "[36]": {"biological_target": "Neu5Ac(a2-3)Gal(b1-3)[Neu5Ac(a2-3)Gal(b1-4)]GlcNAc", "summary_of_the_method": "as §1"}, "[37]": {"biological_target": "Neu5Ac(a2-3)Gal(b1-3)[Neu5Ac(a2-6)]GalNAc", "summary_of_the_method": "as §1"}}, "note": "The list shows a part of the results.", "data": [{"binder": "Gal 3 (Canis lupus) (protein) MADSFSLNDALSGSGNPNPQGWPGPWGNQPAGAGGYPGASYPGAYPGQAPPGGYPGQAPPGGYPGQAPPGGYPGQAPPGGYPGQAPPGGYPGQAPPGTYPGPTAPAYPGPTAPGTQPGQPSGPGAYPPPGQPSAPGAYPAAGPFGIPAGPLTVPYDLPLPGGVKPRMLITILGTVRPSANRLALDFKRGNDVAFHFNPRFNEDNKRVIVCNTKLDNIWGKEERQAAFPFESGKPFKIQVLVESDHFKVAVNDAHLLQYNHRMKNLPEISKLGISGDIDLTSASYAMI", "values": [{"measurement": "glycan array binding signal (z-score)", "setting": "[1]", "result": -0.261}, {"measurement": "glycan array binding signal (z-score)", "setting": "[2]", "result": -0.201}, {"measurement": "glycan array binding signal (z-score)", "setting": "[3]", "result": -0.248}, {"measurement": "glycan array binding signal (z-score)", "setting": "[4]", "result": -0.272}, {"measurement": "glycan array binding signal (z-score)", "setting": "[5]", "result": -0.257}, {"measurement": "glycan array binding signal (z-score)", "setting": "[6]", "result": -0.267}, {"measurement": "glycan array binding signal (z-score)", "setting": "[7]", "result": -0.252}, {"measurement": "glycan array binding signal (z-score)", "setting": "[8]", "result": -0.264}, {"measurement": "glycan array binding signal (z-score)", "setting": "[9]", "result": -0.273}, {"measurement": "glycan array binding signal (z-score)", "setting": "[10]", "result": -0.256}, {"measurement": "glycan array binding signal (z-score)", "setting": "[11]", "result": -0.261}, {"measurement": "glycan array binding signal (z-score)", "setting": "[12]", "result": -0.262}, {"measurement": "glycan array binding signal (z-score)", "setting": "[13]", "result": -0.265}, {"measurement": "glycan array binding signal (z-score)", "setting": "[14]", "result": -0.258}, {"measurement": "glycan array binding signal (z-score)", "setting": "[15]", "result": -0.261}, {"measurement": "glycan array binding signal (z-score)", "setting": "[16]", "result": -0.272}, {"measurement": "glycan array binding signal (z-score)", "setting": "[17]", "result": -0.267}, {"measurement": "glycan array binding signal (z-score)", "setting": "[18]", "result": -0.266}, {"measurement": "glycan array binding signal (z-score)", "setting": "[19]", "result": -0.268}, {"measurement": "glycan array binding signal (z-score)", "setting": "[20]", "result": -0.261}, {"measurement": "glycan array binding signal (z-score)", "setting": "[21]", "result": -0.261}, {"measurement": "glycan array binding signal (z-score)", "setting": "[22]", "result": -0.256}, {"measurement": "glycan array binding signal (z-score)", "setting": "[23]", "result": -0.236}, {"measurement": "glycan array binding signal (z-score)", "setting": "[24]", "result": -0.238}, {"measurement": "glycan array binding signal (z-score)", "setting": "[25]", "result": -0.133}, {"measurement": "glycan array binding signal (z-score)", "setting": "[26]", "result": -0.27}, {"measurement": "glycan array binding signal (z-score)", "setting": "[27]", "result": -0.175}, {"measurement": "glycan array binding signal (z-score)", "setting": "[28]", "result": -0.199}, {"measurement": "glycan array binding signal (z-score)", "setting": "[29]", "result": 0.657}, {"measurement": "glycan array binding signal (z-score)", "setting": "[30]", "result": 0.787}, {"measurement": "glycan array binding signal (z-score)", "setting": "[31]", "result": -0.142}, {"measurement": "glycan array binding signal (z-score)", "setting": "[32]", "result": -0.252}, {"measurement": "glycan array binding signal (z-score)", "setting": "[33]", "result": -0.266}, {"measurement": "glycan array binding signal (z-score)", "setting": "[34]", "result": -0.23}, {"measurement": "glycan array binding signal (z-score)", "setting": "[35]", "result": -0.244}, {"measurement": "glycan array binding signal (z-score)", "setting": "[36]", "result": -0.256}, {"measurement": "glycan array binding signal (z-score)", "setting": "[37]", "result": -0.204}]}]}
